# Data from the supplement of paper PMC3334620.
# Whole data set: some 33,000 sequences, median “E-score (-0.5 to 0.5)” near -0.036, cut for the highest 2% near 0.37. This is one part of the list.
# Target: T1, Yer064c (UniProt P40041)
# T1 sequence: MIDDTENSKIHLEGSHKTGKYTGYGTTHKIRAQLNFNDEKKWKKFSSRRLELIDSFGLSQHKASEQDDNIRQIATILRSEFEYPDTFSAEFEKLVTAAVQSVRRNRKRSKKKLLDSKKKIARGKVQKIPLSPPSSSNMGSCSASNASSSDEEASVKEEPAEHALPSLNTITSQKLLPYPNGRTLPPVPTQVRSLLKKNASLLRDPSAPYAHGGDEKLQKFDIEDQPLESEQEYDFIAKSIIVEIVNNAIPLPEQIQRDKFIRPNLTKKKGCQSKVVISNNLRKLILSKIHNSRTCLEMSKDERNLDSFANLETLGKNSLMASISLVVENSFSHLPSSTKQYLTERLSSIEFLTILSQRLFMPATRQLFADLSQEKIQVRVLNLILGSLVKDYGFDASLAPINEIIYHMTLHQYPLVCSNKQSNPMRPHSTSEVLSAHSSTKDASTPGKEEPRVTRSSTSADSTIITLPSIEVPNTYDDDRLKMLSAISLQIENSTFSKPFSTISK
# Assay: PBM E-score (8-mer binding enrichment) (E-score (-0.5 to 0.5)); higher = stronger / more preferred TF binding; most listed sequences are background and not binding sites
# Settings: protein concentration: 200 nM; construct: GST-full length
# Method: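 Universal 'all 10-mer' protein binding microarrays (Agilent AMADID 015681) probed with GST-tagged S. cerevisiae TFs (full-length or DBD) made by in vitro transcription/translation (PURExpress), about 100-200 nM. Bound TF was detected with fluorescent anti-GST. Each ungapped 8-mer (which stands for itself and its reverse complement) is scored by the PBM enrichment score (E-score), a modified Wilcoxon-Mann-Whitney statistic from -0.5 to +0.5, computed with the Universal PBM Analysis Suite. Scale: above 0.35 generally sequence-specific binding.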
row,Sequence,PBM E-score
1,CAAAGGGA,0.131
2,AGCACGTC,-0.179
3,AGTACCAA,0.104
4,CCGGGCCC,-0.315
5,ACGGCGGA,-0.0257
6,CACGGTTA,0.0807
7,CAAATTCC,-0.0634
8,CCATAGAA,-0.119
9,GGAATCGA,-0.0545
10,AACATCAC,-0.111
11,GTATCACA,0.0755
12,TTACAGAA,-0.0215
13,GAACAAAC,-0.148
14,AGTCGTGG,0.373
15,ATACACAC,0.13
16,ACAGTATG,0.0881
17,CACTTCCA,-0.0798
18,AGCGCCTC,-0.254
19,AGTCCACA,0.207
20,CATATAAC,0.021
21,ACCCCACT,-0.13
22,CGGGTTCA,-0.0939
23,GGTCTTCA,-0.144
24,CAAGCCGA,0.102
25,AAATGTAT,0.0293

row,Sequence,PBM E-score
1,AAGCACAG,0.0417
2,CAGATGTA,-0.146
3,AACATTAT,-0.0519
4,GGGGATAA,-0.07
5,AACAGTCG,0.209
6,AAAGCAAC,-0.142
7,TCTAGCCA,0.0953
8,ACTCCGGG,0.164
9,CCCTTCGC,-0.257
10,GCCAAGTA,-0.117
11,CGCTACTA,0.0698
12,ATTCGTGA,0.283
13,GCGCTGTA,-0.0554
14,GCACGAAA,0.0098
15,AACACCCA,-0.0581
16,ACATTGCG,-0.133
17,ATCATATC,0.231
18,GACAATGA,0.11
19,GCAGCCGA,0.0273
20,GAGTGCCA,-0.283
21,ATAGAGAT,0.111
22,CAGGACAC,-0.0355
23,TATAATCA,0.387
24,ATCAACGA,0.18
25,AAATATAT,0.0609

row,Sequence,PBM E-score
1,AACAACCG,-0.036
2,CGCAAAAA,0.101
3,CAAGAATC,0.234
4,TGCTGACA,0.0187
5,CCCTGCGG,-0.169
6,AACACTCT,-0.0759
7,AAAAGTGG,-0.0585
8,ACAATGTC,-0.044
9,AGTACTAT,0.111
10,CCAAATGC,-0.232
11,ACTATGCC,0.0767
12,ATTACTCA,0.329
13,TCGGGTCA,0.036
14,CGCTATAA,-0.101
15,AAGCGTGT,-0.0762
16,ATCCGCCG,-0.101
17,AGTTGTTA,0.0551
18,AGCCAGTG,0.0912
19,AGTTAACC,0.133
20,AGGAGCAT,-0.245
21,AATACATT,0.0194
22,CGAGACGC,-0.169
23,CGCATAGA,-0.188
24,CACTTGAA,0.0678
25,TCTTAACA,0.108

row,Sequence,PBM E-score
1,AAACGCTT,-0.311
2,ATAGAGAA,-0.156
3,CCCGATGA,0.268
4,TATGGCGA,0.0348
5,ACAGGCAC,-0.257
6,CAGTCAAA,0.254
7,AATACCGA,-0.0883
8,ACTCTGAA,0.23
9,CTAATCGA,0.13
10,CGTGACTA,0.486
11,CAATGCAG,-0.109
12,AGATAAGA,0.0614
13,CTTACAGA,-0.154
14,AGCGCAGC,-0.0836
15,ACGTAGGC,-0.297
16,AGATACCG,-0.165
17,GGCGTTAC,-0.247
18,ACCTTAGG,-0.193
19,CCGTCACA,-0.22
20,TACTTTCA,0.0717
21,ACGAAGGG,-0.192
22,CTTACATA,0.00734
23,CAATCGTC,0.0944
24,AACCTATC,-0.346
25,AAAGCTCT,-0.298

row,Sequence,PBM E-score
1,AGCGGAGG,-0.24
2,CTTGGCTC,-0.0769
3,AGCTTGAC,0.112
4,CCCCCTTA,-0.305
5,GAATCACA,0.439
6,AATCTACA,0.101
7,AGTGACAC,-0.0262
8,CCCTACTC,-0.144
9,CGCTTAAC,-0.025
10,CAGACGAG,-0.0357
11,CCGCGCAG,-0.036
12,CCGTATCG,-0.155
13,GGGCCACA,-0.262
14,CCGTCGTC,-0.353
15,ATTCGCGC,0.0628
16,ATTGAATG,0.167
17,GACCGATC,-0.326
18,GTGTTGAA,0.0472
19,AAGGTCCA,-0.248
20,GGGCCCCA,-0.187
21,CATAGGTC,0.0874
22,AGAAGCCC,-0.218
23,CGCAGACG,0.0321
24,CAAGTACG,-0.0743
25,AGTCCTCA,0.324

row,Sequence,PBM E-score
1,ATCCTGCA,0.0162
2,GGTGCTCA,-0.193
3,CGGACCGC,-0.209
4,AATCTAGA,0.17
5,AGAAGCAC,-0.198
6,ATCTAACG,0.0572
7,AGTAGGAC,-0.0515
8,ACTGATAG,0.149
9,ACGTTAAG,-0.0557
10,TGCCACCA,-0.299
11,CGGATACC,-0.124
12,ACCTAAGC,0.0252
13,CGTTCTCC,-0.256
14,AGATCAGA,0.0561
15,ACGTCCAC,-0.183
16,AGCCACCC,0.0937
17,ACCGAAAT,-0.0482
18,AAAGGTAT,-0.0776
19,AGCAGTCG,0.065
20,GAACCAAA,-0.0805
21,AGCATAAA,-0.0756
22,GCTGCGCC,-0.317
23,CAACTAAG,0.122
24,CAGCTGCA,-0.216
25,CAAGTCTC,0.00338

row,Sequence,PBM E-score
1,AGCCCTTC,-0.303
2,TTACGTAA,0.129
3,ACAAACAG,-0.0373
4,TCTGGGCA,-0.189
5,AGCCGACT,0.241
6,CCCGGCCA,-0.141
7,CGCGCCGA,-0.141
8,TGAAGACA,0.0738
9,GATAAGAA,-0.0111
10,AGCCGTAC,-0.104
11,CGAGCATC,-0.205
12,AGAACGAA,-0.113
13,CATATTTA,0.236
14,GCCCTAGC,-0.089
15,AAGATAAT,0.133
16,GCGGTCAA,-0.0967
17,CCGCGGTC,-0.129
18,TTTGCAAA,0.12
19,GTCTAGCA,0.0736
20,TCACGTCA,0.0167
21,GAAGTGCA,-0.12
22,AGTGGGGC,-0.134
